# Results published in the supplement of paper PMC12067093, “Discovery and optimisation of a covalent ligand for TRIM25 and its application to targeted protein ubiquitination” (Chemical Science, 2025).
# Of roughly 21,000 targets only a part is listed; those with the largest changes were picked by preference.
# Compound: CC1Cc2ccccc2N1C(=O)C1CCCN(C1)C(=O)CCl (mixture of isomers) [TRIM25 ligand 11 (diastereomer mixture)]
# Experiment: probe-labelled cysteine peptide fold change vs DMSO (competition) (log2 fold change); higher = less target engagement (more negative = stronger competition)
# Settings: 50 µM; THP-1; incubation time: 4 h
# 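Further: competitive chemoproteomic profiling in live THP-1 cells with an iodoacetamide desthiobiotin (IA-DTB) probe, comparing probe-labelled peptide intensities in compound-treated cells against DMSO-treated controls.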
# Chain of UniProt A9UHW6 (A9UHW6 whole entry, looked up): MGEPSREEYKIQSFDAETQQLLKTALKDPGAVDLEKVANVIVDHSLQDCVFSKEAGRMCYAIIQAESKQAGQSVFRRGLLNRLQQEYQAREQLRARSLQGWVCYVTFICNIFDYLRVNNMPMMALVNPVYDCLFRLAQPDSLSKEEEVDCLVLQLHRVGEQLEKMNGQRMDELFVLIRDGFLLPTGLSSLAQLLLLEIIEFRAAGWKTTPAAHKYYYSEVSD
target,measurement,value
MIF4GD_A9UHW6_150_EEEVDCLVLQLHR (UniProt A9UHW6),probe-labelled cysteine peptide fold change,0.181
